The values that follow come from the supplement of paper PMC9446081.

Among all 39,000 compounds or so, about 220 (0.56%) showed activity. Some of the results follow.
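Note: static incubation at 37 °C against the wild-type strain, values averaged over two biological replicates.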

The test system of the test is Escherichia coli K-12 BW25113. Briefly: relative growth (OD600 normalised to plate interquartile mean) (fraction); higher = less growth inhibition, active = 0.2 or less. Conditions: 50 µM; LB; incubation time: overnight (16-24 h).
`CNC1C(O)C(OC2C(N)CC(N)C(OC3OC(C(C)O)C(O)C(O)C3N)C2O)OCC1(C)O` (configuration not stated): the relative growth is active: 0.0438.
As to `COC(=O)C[C@](O)(CCC(C)(C)O)C(=O)O[C@@H]1C(OC)=C[C@]23CCCN2CCc2cc4c(cc2[C@H]13)OCO4`, the relative growth is inactive: 1.02.
On to `Oc1ccc(N2CCNCC2)cc1`, for which the relative growth was inactive: 1.02.
For `NC[C@@H](CC(=O)O)c1ccc(Cl)cc1`, the relative growth is inactive: 1.02.
Consider `CCCCCCCCCCCCCC(=O)O[C@@H]1[C@@H](C)[C@@]2(O)[C@@H](C=C(CO)C[C@]3(O)C(=O)C(C)=C[C@@H]23)[C@@H]2C(C)(C)[C@]12OC(C)=O`, for which the relative growth is inactive: 1.02.
In the case of `C=CCN1C(=O)NC(=O)/C(=C/c2ccco2)C1=O`, the relative growth was inactive: 0.971.
Regarding `CCN(C(C)=O)c1cccc(-c2ccnc3c(C#N)cnn23)c1`, the relative growth was inactive: 1.06.
The same measure for `COC12CC(COC(=O)c3cncc(Br)c3)CN(C)C1Cc1cn(C)c3cccc2c13` (configuration not stated): inactive: 0.941; for `O=[N+]([O-])c1ccc([As](=O)(O)O)cc1`: inactive: 0.967.
Take `CN(C)NC(=O)CCC(=O)O`: the relative growth is inactive: 1.01.
The same measure for `CC1(C)C(C=C(Cl)Cl)C1C(=O)OCc1cccc(Oc2ccccc2)c1` (configuration not stated): inactive: 1.05.
Take `COc1ccc2c(c1)[nH]c1c(C)nccc12`: the relative growth was inactive: 0.897.
On to `CN1C(=O)NC(=O)/C(=C\C=C\c2ccco2)C1=O`, for which the relative growth is inactive: 1.02.
In the case of `O=C(c1ccccc1)C12CN3CN(CN(C3)C1)C2`, the relative growth was inactive: 1.01.
Consider `O=C(O)Cc1cccnc1C(=O)O`, for which the relative growth was inactive: 0.97.
Turning to `Oc1c(Cl)c(Cl)c(Cl)c(Cl)c1Cl`, the relative growth was inactive: 0.738.
Turning to `NC1N[C@H]2CCCC[C@@H]2N1`, the relative growth is inactive: 0.993.
As to `Cc1ccc(OC(=O)N(C)C[C@@H]2OCc3ccccc3-c3c(n(C)c4ccccc34)C(=O)N([C@H](C)CO)C[C@@H]2C)cc1`, the relative growth is inactive: 1.01.
The same measure for `O=C([O-])c1ccccc1-c1c2cc(Br)c(=O)cc-2oc2[c]([Hg][OH])c([O-])c(Br)cc12.[Na+].[Na+]`: inactive: 0.912; for `CO[C@@H]1C[C@@H](C[C@H]2CC[C@H](C)[C@H]([C@@H](C)C(=O)O)O2)O[C@]2(O[C@](C)([C@H]3CC[C@@](C)([C@H]4O[C@@H]([C@H]5O[C@@](O)(CO)[C@H](C)C[C@@H]5C)C[C@@H]4C)O3)C[C@H]2C)[C@@H]1C`: inactive: 0.945.
As to `Cc1ccc(OC(=O)N(C)C[C@@H]2OCc3ccccc3-c3c(n(C)c4ccccc34)C(=O)N([C@@H](C)CO)C[C@@H]2C)cc1`, the relative growth was inactive: 1.
Turning to `CN(C)C(=O)CN1CCN(C)C(=O)[C@]12CCN(c1ncccn1)C2`, the relative growth is inactive: 1.05.
On to `CC(=O)OCC1=C(C(=O)O)N2C(=O)[C@@H](NC(=O)CCC[C@@H](N)C(=O)O)[C@@H]2SC1`, for which the relative growth was inactive: 1.02.
For `COC(=O)[C@@H](N)CCCNC(N)=N[N+](=O)[O-]`, the relative growth is inactive: 1.01.
`CCOC(OCC)P(=O)(O)CCCN`: the relative growth was inactive: 1.
With `NCCc1c[nH]c2ccc(OCC(=O)O)cc12`, the relative growth was inactive: 1.01.
Turning to `NCCc1c[nH]c2ccccc12`, the relative growth was inactive: 1.01.
Next, `Br.COc1ccc2c(c1)C13CCCCC1C(C2)N(C)CC3` (configuration not stated): inactive: 1.06; `NC1CC1c1ccccc1.O=S(=O)(O)O` (configuration not stated): inactive: 1.02.
`COc1cc(CCN)ccc1O`: the relative growth was inactive: 0.989.
Regarding `O[C@H]1[C@H]2[C@H](O)CCCN2C[C@H]1O`, the relative growth was inactive: 1.01.
The same measure for `N#Cc1cnccn1`: inactive: 0.89.
The same measure for `CC(C)(C)OC(=O)N[C@H]1[C@@H]2CNC[C@@H]21`: inactive: 1; for `Cn1cc(CN2C[C@H]3CNC[C@H]3C2)cn1`: inactive: 0.972; for `Cn1cc([C@@H](O)c2ccccc2)[n+](C)c1`: inactive: 1.02.
Next, `Nc1nnns1`: inactive: 0.989.
On to `CN1CCN(C(=O)OC2c3nccnc3C(=O)N2c2ccc(Cl)cn2)CC1` (configuration not stated), for which the relative growth is inactive: 1.06.
With `CN(C)[C@@H]1C(=O)C(C(N)=O)=C(O)[C@@]2(O)C(O)=C3C(=O)c4c(O)cccc4[C@](C)(O)[C@H]3C[C@@H]12`, the relative growth is active: 0.0416.
The same measure for `CN1CCc2cc3c(cc2C1C1OC(=O)c2c1ccc1c2OCO1)OCO3` (configuration not stated): inactive: 1.1; for `N=C(N)N/N=C/c1ccc2c(c1)OCO2`: inactive: 0.984; for `COc1cc2c(cc1OC)C1CC(=O)C(CC(C)C)CN1CC2` (configuration not stated): inactive: 0.989.
On to `Cc1nc2c(=O)n(C)c(=O)nc-2n(C)n1`, for which the relative growth was active: 0.0393.
For `COc1ccc([C@@H](CN)C(C)C)cc1OC`, the relative growth was inactive: 1.01.
On to `COC(=O)[C@H]1CNCCN1c1ccccc1`, for which the relative growth was inactive: 0.984.
Take `Cc1cccc(C)c1NC1=NCCCS1`: the relative growth was inactive: 1.
In the case of `CC(C)NC(=O)C1=NO[C@]2(CCNC2)C1`, the relative growth was inactive: 0.997.
In the case of `O=C(CCCN1CCC2(CC1)C(=O)N(Cc1cccc(F)c1)CN2c1ccccc1)c1ccc(F)cc1`, the relative growth was inactive: 0.979.
Take `C/C(=C\[C@@H](N)C(=O)O)CP(=O)(O)O`: the relative growth is inactive: 1.02.
As for `COC(=O)[C@@H]1[C@@H](CO)[C@@H]2Cn3c(ccc(C4=CCCC4)c3=O)[C@H]1N2S(=O)(=O)c1cn(C)cn1`, the relative growth is inactive: 0.978.
The same measure for `Br.COC(=O)C1=CCCN(C)C1`: inactive: 1.05.
In the case of `COc1ccc(OC(=O)N(C)C[C@@H]2OCc3ccccc3-c3c(n(C)c4ccccc34)C(=O)N([C@H](C)CO)C[C@H]2C)cc1`, the relative growth is inactive: 1.03.
Regarding `O=C1C=C2C(=CCO[C@@H]2O)O1`, the relative growth was inactive: 1.
Next, `O=S(=O)(N[C@H]1CCO[C@]2(CCNC2)C1)C1CC1`: inactive: 1.01; `CC(N)C(O)c1ccccc1.Cl` (configuration not stated): inactive: 1.06; `CCC(C(=O)[O-])C1CCC(C)C(C(C)C(O)C(C)C(=O)C(CC)C2OC3(C=CC(O)C4(CCC(C)(C5CCC(O)(CC)C(C)O5)O4)O3)C(C)CC2C)O1.[Na+]` (configuration not stated): inactive: 0.729.
The same measure for `CC1(C)S[C@@H]2[C@H](N)C(=O)N2[C@H]1C(=O)O`: inactive: 1.01.
Next, `CC[C@@]1(O)C[C@H](O[C@H]2C[C@H](N(C)C)[C@H](O)[C@H](C)O2)c2c(cc3c(c2O)C(=O)c2c(O)ccc(O)c2C3=O)[C@H]1C(=O)OC`: inactive: 1.06; `NC(=O)CN1CCCC1=O`: inactive: 0.984; `O=C(CN1CCOCC1)c1ccc(O)cc1O`: inactive: 1.
For the compound `COc1cc2c(cc1OC)C(C)NCC2` (configuration not stated), the relative growth is inactive: 0.987.
Consider `Cc1cccc(Cc2c[nH]cn2)c1C.Cl`, for which the relative growth is inactive: 1.1.
For the compound `CCN1C[C@@]2(C)CC[C@H](OC)C34[C@@H]2[C@H](O)[C@]2(OCO[C@@]25C[C@H](OC)[C@H]2C[C@]3(O)[C@@H]5[C@H]2O)[C@@H]14`, the relative growth is inactive: 0.985.
Regarding `O=c1[nH]c2cc(N3CCNCC3)ccc2o1`, the relative growth is inactive: 1.
Regarding `O=C(NN=Cc1ccc([N+](=O)[O-])o1)c1cc([N+](=O)[O-])cc([N+](=O)[O-])c1O`, the relative growth was inactive: 1.12.
As for `CN(C)C(=O)[C@H]1CCC2(CCNCC2)CO1`, the relative growth is inactive: 0.989.
As for `CC(C)CC1C(=O)N2CCCC2C2(O)OC(NC(=O)C3C=C4c5cccc6[nH]c(Br)c(c56)CC4N(C)C3)(C(C)C)C(=O)N12.CS(=O)(=O)O` (configuration not stated), the relative growth was inactive: 1.07.
Consider `[N-]=[N+]=NCc1ccccc1C[C@]1(C(=O)NCc2ccccc2)N=C(c2ccc(OCCCO)cc2)O[C@H]1c1ccccc1N=[N+]=[N-]`, for which the relative growth is inactive: 0.987.
Next, `O[C@H]1C2CN3CCN(C2)CC1(c1ccccc1)C3`: inactive: 1.01; `CNc1ccc(C(=O)C[C@@H](O)CC[C@@H](C)[C@H]2OC(=O)C[C@@H](O)CC(=O)C[C@@H](O)C[C@@H](O)C[C@@H](O)C[C@@H](O)C[C@@]3(O)C[C@@H](O)[C@H](C(=O)OC)[C@@H](C[C@@H](O[C@@H]4O[C@H](C)[C@@H](O)[C@H](N)[C@@H]4O)\C=C/C=C\C=C/C=C\C=C/C=C\C=C/[C@@H]2C)O3)cc1`: inactive: 1.01; `CC(C)c1c(CN(C)C(C)Cc2ccccc2)n(C)n(-c2ccccc2)c1=O` (configuration not stated): inactive: 0.998.
As for `Cc1noc(C)c1C(=O)N1C[C@@H]2CCN[C@@H]2C1`, the relative growth was inactive: 1.02.
In the case of `CC(C)(C)CC(=O)N1C[C@H]2C[C@@H]1CN2`, the relative growth was inactive: 1.02.
Next, `Oc1ccc(Cl)cc1`: inactive: 1; `O=P1(NCCCl)OCCCN1CCCl` (configuration not stated): inactive: 0.905; `CC(=O)Oc1ccc(Cl)c2cccnc12`: active: 0.0572.
Take `CC12CCC(=O)C=C1CCC1C2CCC2(C)C(O)CCC12` (configuration not stated): the relative growth was inactive: 1.01.
The same measure for `Cn1cnc(CCN)c1`: inactive: 0.962; for `O=C1NCC2(CNC2)O1`: inactive: 0.873; for `Nc1ccccc1N1CCNCC1`: inactive: 0.985.
Next, `COC(=O)[C@@H]1[C@@H](CO)[C@@H]2Cn3c(cccc3=O)[C@H]1N2C(=O)C1CC1`: inactive: 0.984; `O[C@@]12CCCC[C@@H]1CNCC2`: inactive: 1.03.
`C[C@@H]1O[C@@H](O[C@H]2CC[C@]3(C=O)[C@H]4CC[C@]5(C)[C@@H](C6=CC(=O)OC6)CC[C@]5(O)[C@@H]4CC[C@]3(O)C2)[C@H](O)[C@H](O)[C@H]1O`: the relative growth is inactive: 1.
The same measure for `CC(=O)O[C@@]12CO[C@@H]1C[C@H](O)[C@@]1(C)C(=O)[C@H](O)C3=C(C)[C@@H](OC(=O)[C@H](O)[C@@H](NC(=O)c4ccccc4)c4ccccc4)C[C@](O)([C@@H](OC(=O)c4ccccc4)[C@H]21)C3(C)C`: inactive: 0.996; for `CC12CCC3C(CCC4CC(=O)CCC43C)C1CCC2=O` (stereo not drawn) ["5alpha-ANDROSTAN-3,17-DIONE"]: inactive: 0.862; for `Cc1cccnc1N1CCNCC1`: inactive: 1.01.
`O/N=C1\CN2CCC1CC2`: the relative growth was inactive: 0.998.
Consider `CO[C@H]1[C@H](O)[C@@H](O[C@H]2[C@@H](C)O[C@@H](O[C@H]3[C@H](C)O[C@H](O[C@H]4CC[C@@]5(C)[C@@H](CC[C@@]6(O)[C@@H]5C[C@@H](O)[C@]5(C)[C@]6(O)CC[C@@]5(O)[C@@H](C)O)C4)C[C@@H]3OC)C[C@H]2OC)O[C@@H](C)[C@H]1O`, for which the relative growth was inactive: 0.983.
